Reference: PMC4336329 (PLoS ONE, 2015)
About 2,200 (0.71%) of roughly 310,000 compounds showed an effect of 50% or more. The effect is printed as a negative number. The list shows a part of the results.

Molecular target: human ether-à-go-go-related gene (hERG) potassium channel (human, UniProt Q12809)
Assay: primary screen, population patch clamp on CHO cells stably expressing hERG

Chain of human ether-à-go-go-related gene (hERG) potassium channel (Q12809 whole entry, looked up): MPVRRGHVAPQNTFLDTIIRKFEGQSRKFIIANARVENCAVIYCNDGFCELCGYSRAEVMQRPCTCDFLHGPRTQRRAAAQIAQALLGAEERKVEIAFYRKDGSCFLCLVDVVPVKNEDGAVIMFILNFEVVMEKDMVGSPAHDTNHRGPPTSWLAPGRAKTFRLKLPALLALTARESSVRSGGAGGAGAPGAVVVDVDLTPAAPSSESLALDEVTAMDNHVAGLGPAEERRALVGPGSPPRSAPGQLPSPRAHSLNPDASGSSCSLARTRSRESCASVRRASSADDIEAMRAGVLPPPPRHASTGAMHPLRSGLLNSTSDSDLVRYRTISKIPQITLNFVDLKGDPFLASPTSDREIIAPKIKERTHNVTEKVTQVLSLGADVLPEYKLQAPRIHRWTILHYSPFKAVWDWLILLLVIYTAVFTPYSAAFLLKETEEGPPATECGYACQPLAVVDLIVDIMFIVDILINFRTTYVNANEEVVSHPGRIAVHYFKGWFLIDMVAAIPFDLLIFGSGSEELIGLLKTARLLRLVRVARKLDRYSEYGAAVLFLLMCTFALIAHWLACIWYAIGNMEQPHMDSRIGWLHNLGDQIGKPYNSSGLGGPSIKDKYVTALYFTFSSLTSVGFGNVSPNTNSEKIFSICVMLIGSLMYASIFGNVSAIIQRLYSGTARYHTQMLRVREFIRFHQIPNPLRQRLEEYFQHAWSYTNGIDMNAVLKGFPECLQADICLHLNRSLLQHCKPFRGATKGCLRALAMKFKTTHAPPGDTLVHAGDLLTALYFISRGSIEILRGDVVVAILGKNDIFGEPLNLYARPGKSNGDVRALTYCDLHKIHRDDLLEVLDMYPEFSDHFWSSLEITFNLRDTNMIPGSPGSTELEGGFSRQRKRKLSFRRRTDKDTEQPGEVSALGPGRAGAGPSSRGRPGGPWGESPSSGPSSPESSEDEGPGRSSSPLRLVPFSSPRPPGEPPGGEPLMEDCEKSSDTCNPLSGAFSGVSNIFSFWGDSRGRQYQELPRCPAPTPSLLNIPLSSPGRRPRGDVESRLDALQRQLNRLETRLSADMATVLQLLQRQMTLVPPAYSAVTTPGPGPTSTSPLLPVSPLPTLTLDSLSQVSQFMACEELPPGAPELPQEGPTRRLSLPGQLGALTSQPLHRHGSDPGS

| SMILES | hERG current change (%, negative = inhibition) at 1uM [%] |
| --- | --- |
| COc1ccc(N=C(N(C)C)P(=O)(N(C)C)N(C)C)cc1 | -0.0596 |
| COc1ccccc1C(=O)Nc1ccc2c(c1)nc1n2CCSC1 | 3.31 |
| O=C(NCC(=O)N(Cc1cccs1)C(C(=O)NC1CCCCC1)c1ccncc1)c1ccco1 (stereo not shown) | -0.88 |
| COc1ccc(S(=O)(=O)NCC(=O)Nc2ccc3c(c2)OCCO3)cc1OC | 14 |
| COC(=O)N1N=C(c2ccc(Br)cc2)CC1(O)C(F)(F)F (stereo not shown) | 6.6 |
| c1ccc(-c2nnc(N3CCOCC3)nc2-c2ccccc2)cc1 | 4.57 |
| Cc1cc(/C=N/NC(=O)c2ccsc2)c(C)n1-c1cnccn1 | 23.4 |
| COC(=O)COc1cccc2c(=O)n(CC(=O)NCc3ccccc3)ccc12 | 8.53 |
| CN(CCNC(=O)c1cc2c(=O)n(C)c3ccccc3c2n1C)Cc1ccccc1 | 6.05 |
| COCC(=O)Nc1nc(-c2ccccc2)ns1 | -8.41 |
| Cc1ccc(S(=O)(=O)/N=C2/NC(=O)/C(=C\c3cc(Br)cc(Br)c3O)S2)cc1 | 4.92 |
| O=C(Nc1ccccc1Oc1cccnc1)C1CCCN(C/C=C/c2ccccc2)C1 (stereo not shown) | -46.2 |
| COc1ccc(OC)c(NC(=O)Cn2cnc3c(cnn3-c3ccccc3)c2=O)c1 | 9.32 |
| O=C(Cc1ccccc1)N1CCc2ccccc21 | 4.09 |
| COc1ccc(OC)c(NC(=O)c2ccc(CSc3ncccn3)cc2)c1 | 16 |
| COc1ccc(OCC(=O)Nc2cc(-c3nn(C)c(=O)c4ccccc34)ccc2OC)cc1 | 9.4 |
| O=c1cc(CSc2ccccc2)[nH]c2ccccc12 | 14 |
| O=C(NN1C(=O)C2C3C=CC(C3)[C@H]2C1=O)c1cccnc1 (stereo partly shown) | 17.1 |
| COc1ccc(NC(=O)CN(C)C(=O)C2=NN(c3ccccc3)C(=O)CC2)cc1 | 13.8 |
| O=C1CN(C(=O)COc2ccccc2Cl)c2ccccc2N1 | 1.21 |
| O=C1NC(Cc2ccccc2)c2nc3ccccc3c(=O)n2-c2cc(Cl)ccc21 (stereo not shown) | 9.83 |
| COc1ccc(C2C(C(=O)c3ccc(C)o3)=C(O)C(=O)N2Cc2ccco2)cc1OC (stereo not shown) | 12.4 |

| SMILES | hERG current change (%, negative = inhibition) at 1uM [%] |
| --- | --- |
| COc1ccc(CNC(=O)c2cccc(NC(=O)c3ccccc3)c2)cc1 | -25.7 |
| OCCNCCCOc1cc(Cl)ccc1Cl | 8.45 |
| Cc1nc(N)c(C#N)c(-c2cccnc2)c1-c1ccccc1 | 3.28 |
| COC(=O)CSC1=C(C#N)C(c2ccc(C(C)C)cc2)CC(=O)N1 (stereo not shown) | 11 |
| O=C(O)/C=C/C(=O)c1ccc2c(c1)CCc1ccccc1-2 | 11.3 |
| Cc1cccc(C(=O)OC2CCOC2=O)c1C (stereo not shown) | 9.18 |
| Cc1cnc(C(=O)OC(C(=O)c2ccccc2)c2ccccc2)cn1 (stereo not shown) | 5.37 |
| COc1ccc(N=c2ssnc2Cl)cc1 | 13.9 |
| COc1ccc([C@H]2CC(=O)C=C(c3cc(C=O)ccc3OC)C2)cc1OC | 0.902 |
| Cc1ccc(-n2nnnc2-c2cnc(-c3cccnc3)nc2C(F)(F)F)cc1 | -2.33 |
| CN(C)N1C(N)=C(C#N)C(c2ccc3c(c2)OCO3)C2=C1CCCC2=O (stereo not shown) | 7.08 |
| O=c1ccc(-c2ccc(S(=O)(=O)N3CCN(c4ccccc4)CC3)o2)n[nH]1 | 6.36 |
| CCC1=NN(C(=O)Cc2ccc([N+](=O)[O-])cc2)C(O)(C(C)(C)C)C1 (stereo not shown) | -13.3 |
| O=[N+]([O-])c1ccc(N2CCCCC2)c(Cl)c1N1CCCCC1 | 8.22 |
| Cc1ccc(-c2onc(C)c2C)cc1S(=O)(=O)N1CC(C)Oc2ccccc21 (stereo not shown) | 12.6 |
| Cc1ccc(OCCOc2ccc(Br)cc2)c([N+](=O)[O-])n1 | 16.8 |
| CN1C2CCC1/C(=C\c1ccccc1F)C(=O)/C2=C/c1ccccc1F | 9.1 |
| Cc1cc(C)nc(NC2=NCC(=O)N2c2ccc(Cl)cc2)n1 | 10.5 |
| COc1ccc2sc(N(CCCN(C)C)C(=O)c3ccc(C(=O)c4ccccc4)cc3)nc2c1.Cl | 3.35 |
| CCN(CC)S(=O)(=O)c1cc(NC(=O)C(CC(C)C)NC(N)=O)ccc1C (stereo not shown) | 6.19 |
| CCOC(=O)C1CCN(CC(C)(C)NS(=O)(=O)c2ccc(Cl)cc2)CC1 | 6.18 |
